Measured values published in PMC5709738 (The EMBO Journal, 2017).
These are yes or no findings as the source states them, for the method shown. For part of these data: Binding seen in cells or lysates may run through a third protein. Some results given as binding are weak or reduced against the parent protein; the word gives no strength. Tags and fused reporters may be left off the sequences shown. Values belong to the binder of their own block, whether it stands above or below them.

What was measured:
[1] = biological target: T1, Mcm21 D-RWD domain (K. lactis Mcm21 residues 108-293) (Kluyveromyces lactis) (UniProt Q6CVQ9); assay: crystal structure; Ctf19_107-270-Mcm21_108-293-Okp1_295-360; 35% (v/v) glycerol ethoxylate, 200 mM Li-citrate, 20°C; space group P22(1)2(1); 2.1 Å; both purified
T1 sequence: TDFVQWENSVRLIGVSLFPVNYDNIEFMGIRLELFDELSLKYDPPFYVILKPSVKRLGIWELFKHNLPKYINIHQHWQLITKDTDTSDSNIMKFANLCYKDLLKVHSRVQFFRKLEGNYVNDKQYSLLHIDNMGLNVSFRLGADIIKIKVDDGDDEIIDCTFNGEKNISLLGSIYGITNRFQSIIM

[2] = biological target: T2, full-length Ctf19-Mcm21 (K. lactis) (Kluyveromyces lactis) (UniProt Q6CRN7+Q6CVQ9); assay: native MS; tandem mass spectrometry of COMA after partial in-solution disruption with 5% (v/v) acetic acid in 100 mM ammonium acetate, pH 4.0 (pH 3.7 for Appendix Fig S2B); both purified
T2 sequence 1: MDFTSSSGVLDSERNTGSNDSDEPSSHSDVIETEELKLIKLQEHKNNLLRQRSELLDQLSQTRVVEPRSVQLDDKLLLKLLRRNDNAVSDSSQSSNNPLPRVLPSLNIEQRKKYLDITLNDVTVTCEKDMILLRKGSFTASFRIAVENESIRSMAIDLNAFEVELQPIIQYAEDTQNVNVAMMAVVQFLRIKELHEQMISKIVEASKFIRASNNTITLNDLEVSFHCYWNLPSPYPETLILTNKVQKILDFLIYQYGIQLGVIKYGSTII
T2 sequence 2: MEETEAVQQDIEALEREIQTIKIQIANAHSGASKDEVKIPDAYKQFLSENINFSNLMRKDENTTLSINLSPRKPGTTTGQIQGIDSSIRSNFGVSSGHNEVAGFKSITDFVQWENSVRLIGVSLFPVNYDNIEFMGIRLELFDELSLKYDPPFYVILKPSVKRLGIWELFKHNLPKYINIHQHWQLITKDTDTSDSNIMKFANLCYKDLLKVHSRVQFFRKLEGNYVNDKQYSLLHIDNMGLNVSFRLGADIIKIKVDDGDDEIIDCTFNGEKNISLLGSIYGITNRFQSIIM

[3] = biological target: T3, Okp1 (K. lactis, full length) (Kluyveromyces lactis, UniProt Q6CJY0 1-383); assay: as above
T3 construct: Okp1 (CENP-Q orthologue) of Kluyveromyces lactis; also called Okp1^CENP-Q; outer kinetochore protein 1; source: E. coli BL21 Rosetta 2(DE3)pLysS, co-expressed as COMA, purified
T3 sequence (looked up): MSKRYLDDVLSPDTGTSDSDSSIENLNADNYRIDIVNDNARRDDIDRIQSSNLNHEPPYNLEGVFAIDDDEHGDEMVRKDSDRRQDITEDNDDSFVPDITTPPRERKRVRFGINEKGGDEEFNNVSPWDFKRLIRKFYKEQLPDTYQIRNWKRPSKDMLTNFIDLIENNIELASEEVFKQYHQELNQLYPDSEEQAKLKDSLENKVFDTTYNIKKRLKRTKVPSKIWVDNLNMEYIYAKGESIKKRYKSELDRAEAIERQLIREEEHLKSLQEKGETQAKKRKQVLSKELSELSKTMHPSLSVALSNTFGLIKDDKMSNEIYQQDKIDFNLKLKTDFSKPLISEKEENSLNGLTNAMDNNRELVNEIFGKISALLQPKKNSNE

[4] = biological target: T4, full-length polyhistidine-tagged Mcm21 (His-Mcm21) with Ctf19 (K. lactis, affinity purification) (Kluyveromyces lactis) (UniProt Q6CRN7+Q6CVQ9); assay: pull-down; co-expression in E. coli; small-scale Ni2+ affinity purification by the polyhistidine tag; eluates on Coomassie-stained SDS-PAGE
T4 sequence 1: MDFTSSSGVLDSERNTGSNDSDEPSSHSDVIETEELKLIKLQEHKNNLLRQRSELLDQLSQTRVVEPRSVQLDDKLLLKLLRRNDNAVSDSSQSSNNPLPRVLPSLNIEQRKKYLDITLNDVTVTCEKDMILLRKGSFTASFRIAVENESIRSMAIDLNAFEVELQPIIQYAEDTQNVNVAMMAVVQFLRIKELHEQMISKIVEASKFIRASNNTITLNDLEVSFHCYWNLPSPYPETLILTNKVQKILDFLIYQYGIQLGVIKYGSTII
T4 sequence 2: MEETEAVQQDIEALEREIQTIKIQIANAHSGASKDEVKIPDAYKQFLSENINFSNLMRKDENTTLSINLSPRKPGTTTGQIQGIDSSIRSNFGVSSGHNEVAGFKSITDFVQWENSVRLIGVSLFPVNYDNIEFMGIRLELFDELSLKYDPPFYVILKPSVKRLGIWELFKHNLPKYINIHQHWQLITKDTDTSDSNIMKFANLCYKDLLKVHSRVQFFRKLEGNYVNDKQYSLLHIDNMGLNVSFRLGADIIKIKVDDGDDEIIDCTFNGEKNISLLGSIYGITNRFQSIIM

[5] = biological target: T5, Ctf19 (K. lactis, full length) (Kluyveromyces lactis) (UniProt Q6CRN7); assay: native MS; nanoflow spectra and tandem mode with collision-induced dissociation in the gas phase (argon); subassemblies stripped of subunits; both purified
T5 sequence: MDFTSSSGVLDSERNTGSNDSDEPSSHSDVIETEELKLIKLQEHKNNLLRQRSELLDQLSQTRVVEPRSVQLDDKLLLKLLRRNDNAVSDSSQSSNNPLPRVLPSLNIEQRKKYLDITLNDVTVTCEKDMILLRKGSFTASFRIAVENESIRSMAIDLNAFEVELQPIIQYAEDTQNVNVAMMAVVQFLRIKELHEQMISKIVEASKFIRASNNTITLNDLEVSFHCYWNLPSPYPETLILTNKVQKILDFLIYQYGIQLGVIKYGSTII

[6] = biological target: T6, Mcm21 (K. lactis, full length) (Kluyveromyces lactis) (UniProt Q6CVQ9); assay: as above
T6 sequence: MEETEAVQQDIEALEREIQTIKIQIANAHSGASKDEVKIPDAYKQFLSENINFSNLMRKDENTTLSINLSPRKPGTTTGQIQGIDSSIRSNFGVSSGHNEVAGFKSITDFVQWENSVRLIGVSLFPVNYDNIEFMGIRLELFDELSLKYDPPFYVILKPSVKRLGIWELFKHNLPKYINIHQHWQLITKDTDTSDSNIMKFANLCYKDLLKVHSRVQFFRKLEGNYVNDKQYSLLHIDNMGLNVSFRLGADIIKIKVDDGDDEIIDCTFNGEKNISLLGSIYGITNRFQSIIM

B1: Ctf19 D-RWD domain (K. lactis Ctf19 residues 107-270) (domain or fragment, UniProt Q6CRN7 107-270)
chain: NIEQRKKYLDITLNDVTVTCEKDMILLRKGSFTASFRIAVENESIRSMAIDLNAFEVELQPIIQYAEDTQNVNVAMMAVVQFLRIKELHEQMISKIVEASKFIRASNNTITLNDLEVSFHCYWNLPSPYPETLILTNKVQKILDFLIYQYGIQLGVIKYGSTII
- binding [1]: binds

B3: Ame1 (K. lactis, full length) (protein, UniProt Q6CUE5 1-292)
chain: MDALKQRHLKLLYRQRGSASRTIDYDVVIEPELREDGDLVTDSQLTEQDDQSFPDIQVPSPDRVDDFDLNQGDGLMDKATANEDDIDHVIGDEVAAVNAPVETSDLVIDTTQFDSMTLSQLSTPLTSMATIDVLRRLLETVILVTIEERTSQFNRAGSARLRLKLKLEIKILTWFLHQSKEDLITISELNLSNNDLLYRLKQISLLKNSLSRSLLDVRSAISSYEGPNNALSEEQVALQNFKRINELILSQRIDTIINNNLPPDTSTFDTESKKGLLPTLKTLNESLQNTIG
- binding [3]: binds

B5: Nkp1 (K. lactis) (natural protein, Kluyveromyces lactis, UniProt Q6CPR4 1-210, looked up)
chain: MDLESEIIQLVRQNIRPKFPSLNDEQQARLDNALKYDVNYDILKKELVEYIDDWKRNEYYDVLTNIGDLQRLDLGNMLNGDGVSFPKLHSDLANLPRFRLIDNENEMDQSLLHKYDSLRTRLIEKCRAIELIRSATNTDVNYQDINSMLSVVELRQWRDEIQMEWKELAQNLELILKTWPDLTEEKRSKLLQLIDSSSLKSILHIKDNIE
notes: Nkp1 of Kluyveromyces lactis; also called non-essential kinetochore protein 1; HisNkp1; source: E. coli BL21 Rosetta 2(DE3)pLysS, purified
- binding [5]: no binding
- binding [6]: no binding

The next lines start with the values.

- binding [2]: binds
B2: Okp1 (K. lactis, full length) (protein, UniProt Q6CJY0 1-383)
chain: MSKRYLDDVLSPDTGTSDSDSSIENLNADNYRIDIVNDNARRDDIDRIQSSNLNHEPPYNLEGVFAIDDDEHGDEMVRKDSDRRQDITEDNDDSFVPDITTPPRERKRVRFGINEKGGDEEFNNVSPWDFKRLIRKFYKEQLPDTYQIRNWKRPSKDMLTNFIDLIENNIELASEEVFKQYHQELNQLYPDSEEQAKLKDSLENKVFDTTYNIKKRLKRTKVPSKIWVDNLNMEYIYAKGESIKKRYKSELDRAEAIERQLIREEEHLKSLQEKGETQAKKRKQVLSKELSELSKTMHPSLSVALSNTFGLIKDDKMSNEIYQQDKIDFNLKLKTDFSKPLISEKEENSLNGLTNAMDNNRELVNEIFGKISALLQPKKNSNE

- binding [4]: binds
B4: Ame1-Okp1 (K. lactis, full length) (complex, Kluyveromyces lactis)
chain 1: MDALKQRHLKLLYRQRGSASRTIDYDVVIEPELREDGDLVTDSQLTEQDDQSFPDIQVPSPDRVDDFDLNQGDGLMDKATANEDDIDHVIGDEVAAVNAPVETSDLVIDTTQFDSMTLSQLSTPLTSMATIDVLRRLLETVILVTIEERTSQFNRAGSARLRLKLKLEIKILTWFLHQSKEDLITISELNLSNNDLLYRLKQISLLKNSLSRSLLDVRSAISSYEGPNNALSEEQVALQNFKRINELILSQRIDTIINNNLPPDTSTFDTESKKGLLPTLKTLNESLQNTIG
chain 2: MSKRYLDDVLSPDTGTSDSDSSIENLNADNYRIDIVNDNARRDDIDRIQSSNLNHEPPYNLEGVFAIDDDEHGDEMVRKDSDRRQDITEDNDDSFVPDITTPPRERKRVRFGINEKGGDEEFNNVSPWDFKRLIRKFYKEQLPDTYQIRNWKRPSKDMLTNFIDLIENNIELASEEVFKQYHQELNQLYPDSEEQAKLKDSLENKVFDTTYNIKKRLKRTKVPSKIWVDNLNMEYIYAKGESIKKRYKSELDRAEAIERQLIREEEHLKSLQEKGETQAKKRKQVLSKELSELSKTMHPSLSVALSNTFGLIKDDKMSNEIYQQDKIDFNLKLKTDFSKPLISEKEENSLNGLTNAMDNNRELVNEIFGKISALLQPKKNSNE
notes: Ame1 of Kluyveromyces lactis; Okp1 of Kluyveromyces lactis; stands as the Ame1-Okp1 part of COMA; also called Okp1-Ame1; source: E. coli BL21 Rosetta 2(DE3)pLysS, co-expressed with Ctf19 and Mcm21 versions
